The campaign covered roughly 150,000 compounds. About 540 (0.36%) showed an effect of 50% or more. The list shows a part of the results.
System: Plasmodium falciparum
Assay: Primary screen in NF54 nanoGlo assay, in single point, at 2uM, 72h; a lower Z score goes with more inhibition
Assay type: functional, Erythrocyte
Conditions: timepoint 72 hour

Structure (SMILES)	% Inhibition [%]	Z score
C[C@H](Nc1ccc(C(=O)N2CCC(N3CCOCC3)CC2)cn1)C1CC1	-19	1.93
CCc1nncn1CCNC(=O)Nc1cccc(-c2ncc(C)o2)c1	-4	0.65
COc1cc(NC(=O)c2coc(Br)c2)ncn1	-12	1.49
CN(C)CCc1nc(C2(c3ccccc3)CC2)nn1[C@H]1CCS(=O)(=O)C1	-3	0.34
Cc1csc(C2(NCc3nc(C)c(C)[nH]3)CCOCC2)n1	-15	1.98
COc1cccc(-c2nc(C3CCN(S(=O)(=O)c4ccc(CC(C)C)cc4)CC3)no2)c1	-7	0.81
Cc1nn(CCO)c(N)c1[C@]1(O)C(=O)N(Cc2ccccc2Cl)c2ccccc21	-5	0.81
CCCn1nc(C)cc1CN(C)C(=O)[C@H]1CCc2nn(CC)c(=O)n2CC1	5	-0.71
Cn1cnc(CNC(=O)N2CCC(OC3CCCCC3)CC2)n1	2	-0.22
Cc1ccc2nc(NC(=O)CCn3ccnn3)sc2c1	1	-0.13
O=C(CCc1cn[nH]c1)N1CCC2(CCCCCC2)C1	-12	1.56
CC(C)(C)CN(C(=O)[C@H]1CC12CCS(=O)(=O)CC2)c1ccccc1	4	-0.66
CN(CCCCO)C(=O)[C@H]1N(C(=O)OC(C)(C)C)CC12CCCC2	4	-0.5
NC(=O)C1CCCC1NC(=O)CC1CCC(C(F)(F)F)CC1 (stereo not drawn)	-2	0.31
O=C(Nc1nc2ccccc2n1CCN1CCCCC1)c1cccc(COc2ccc(Cl)cc2)c1	1	-0.19
COc1cc(OC)nc(Oc2ccccc2C(=O)Nc2cc(C)cc(Br)c2)n1	-33	3.85
CCOC(=O)c1cn(C)nc1NC(=O)CC1CCC1	-1	0.12
Cc1cnn(CCC(=O)N2C[C@@H]3CC[C@H]2CN(CC(=O)N(C)C)C3)c1	-2	0.37
CC1(C)CN(C(=O)NCCc2cscn2)CCc2ccccc21	-23	3.13
CC(=O)NC1CCC(Nc2ccc(C)cc2OC[C@H]2CCCO2)CC1 (stereo partly drawn)	-4	0.55
CCCc1occc1C(=O)N1CCC2OCC(=O)NC2C1 (stereo not drawn)	-2	0.25
CC1C(=O)CCC1CC(=O)N1CCC(Cc2nc3ccccc3[nH]2)CC1 (stereo not drawn)	2	-0.36

Structure (SMILES)	% Inhibition [%]	Z score
CC(=O)c1cc(CNCCCc2csc(N)n2)n(C)c1	-4	0.77
CC(C)[C@H](O)C1(CNc2ncccc2C#N)CC1	-6	0.54
COc1ccccc1CCNc1cc(C2CC(N)C2)nc(C2CC2)n1 (stereo not drawn)	6	-1.24
COCc1csc(NC(=O)N2CCC(CCc3ccc(F)cc3F)CC2)n1	-19	2.51
Cc1n[nH]c(C)c1CCCNC(=O)Nc1cccc(N2CCN(C)C2=O)c1	-2	0.44
Cc1cnc(N2CCC[C@H](n3ccc(C(F)(F)F)n3)C2)nc1C	-16	1.96
Cc1c(CN2C[C@@H]3CC[C@H]2CN(C(=O)c2cccnc2)C3)oc2ccccc12	-20	1.97
O=C(COc1ccccc1Cl)Nc1ccc(-c2nc3cnccc3o2)c(O)c1	22	-2.54
CCC(CC)n1nc(C)cc1NC(=O)Cn1cnnn1	4	-0.81
CC(C)N(C)Cc1nnnn1CC(=O)N(C)C[C@H](O)c1ccccc1	-4	0.55
COc1ccc2c(c1)OCCN([C@@H](C(=O)O)c1ccccc1F)C2	-18	1.99
Cc1nc(C)n(Cc2cc3c(cc2Br)OCCO3)n1	-14	1.34
Cc1cc(CNC(=O)N[C@H](c2nccs2)C(F)(F)F)sc1C	8	-1.5
Cn1c(=O)c2cn3c(c2n(C)c1=O)[C@@H](c1c(O)ccc2ccccc12)Nc1ccccc1-3	-4	0.73
COc1ccc(-c2nn3c(NC4CCCC4)cc(C)nc3c2C)cc1OC	1	-0.13
CC(=O)N1CC[C@H](Nc2nc(-c3ccccc3)nc3ccccc23)[C@@H](O)C1	-12	1.2
c1cn(-c2ccc(CN3CCC4(CC3)OCCO4)cc2)cn1	3	-0.42
NC(=O)[C@H](Cc1ccccc1)n1cnc2ncccc2c1=O	2	-0.32
O=C1C[C@H](CNc2nc3nonc3nc2N2CCCCC2)CN1C1CC1	-13	1.61
COCCNCCOc1cc(C)c(Cl)c(C)c1	3	-0.4
CC(C)[C@H](O)C1(CNCc2cc(Br)ccc2Cl)CC1	10	-1.02
CCOc1ccc(NC(C)C(=O)NC2CCCC(C)C2C)cc1S(=O)(=O)N1CCOCC1 (stereo not drawn)	-10	2.01

Reference: ChEMBL document CHEMBL4888484, “Replenishing the malaria drug discovery pipeline: Screening and hit evaluation of the MMV Hit Generation Library 1 (HGL1) against asexual blood stage Plasmodium falciparum ,using a nano luciferase reporter read-out” (2022)
